Results reported in PubChem BioAssay AID686978 (National Center for Advancing Translational Sciences (NCATS), 2013).
Among all 420,000 compounds or so, about 64,000 (15%) were called active. Inconclusive means that the source gave no clear call. Such entries were picked first, then a sample of the others. Calls come from the whole dose curve; as a rule, active = well fitted inhibition curve with a large enough effect; inconclusive = small, poorly fitted or top-dose-only effect; inactive = flat fitted curve, though single readings scatter. No potency is given beside an inconclusive call; the fits are too rough.

Assay: qHTS for Inhibitors of human tyrosyl-DNA phosphodiesterase 1 (TDP1): qHTS in cells in absence of CPT; note: nearly all actives have a fitted effect of over 55% in size
Details: DT40 Tdp1-/- hTDP1 cells, no CPT, ATP luminescence, 48 h; activity change, negative = growth inhibition: at 46.2 µM (top of the series) unless noted
Procedure, shortened: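 Growth kinetics read by CellTiter-Glo luminescence after ≥48 hr at 37 °C. Cells: DT40 Tdp1-/- stably carrying human TDP1, 400 per well, compound exposure in the absence of CPT (DMSO vehicle).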
% is set by controls: 0 for no effect and ±100 for the full control effect; potency is the fitted concentration of half-maximal effect; tags give direction and shape of the fitted curve.

**Q.** With `CCOC(=O)c1cc(-c2ccc(F)cc2)n(CCC(=O)NCc2ccc(C)cc2)c1C` as the compound, how does the Potency read?
**A.** active: 20.6 µM

**Q.** With `OC(CN1CCN(C(c2ccccc2)c2ccccc2)CC1)c1ccccc1` (configuration not stated) as the compound, how does the Potency read?
**A.** inconclusive [inhibitor, single point]

**Q.** For `COc1ccc(-c2ccc(C(=O)NCCN(C)C)c3occc23)c(C)c1`, which Potency is on record?
**A.** inconclusive [inhibitor, single point]

**Q.** Which Potency does the source give for `N#CCCN(C(=O)COC(=O)c1ccc(S(=O)(=O)N2CCCC2)cc1)c1cccc(Cl)c1` here?
**A.** inactive

**Q.** For `CCN1CCN(C(=O)C2CCN(S(=O)(=O)c3ccc(Br)cc3)CC2)CC1`, which activity change, negative = growth inhibition is on record?
**A.** inconclusive: -7.05% [inhibitor]

**Q.** Which Potency does the source give for `CCCOc1ccc(NC(=O)C2CC(=O)N3CCCN=C3S2)cc1` (configuration not stated) here?
**A.** inconclusive [inhibitor, partial curve, poor fit]

**Q.** With `OCCN(Cc1ccccc1)Cc1ccc(C(F)(F)F)cc1` as the compound, how does the Potency read?
**A.** inconclusive [inhibitor, single point]

**Q.** With `CC(C)c1nc(SCC(=O)Nc2nc3c(s2)CCCC3)c2ccccc2n1` as the compound, how does the Potency read?
**A.** active: 11.2 µM

**Q.** With `CCCCNC(=O)CS(=O)Cc1nc(-c2ccc(C)cc2)oc1C` (configuration not stated) as the compound, how does the Potency read?
**A.** inactive

**Q.** Which Potency does the source give for `COc1ccc(-c2csc(NC(=O)CSCC(=O)Nc3cc(C)on3)n2)c(OC)c1` here?
**A.** inconclusive [inhibitor, single point]

**Q.** For `Nc1ncnc2nc(-c3ccccc3)[nH]c12`, which Potency is on record?
**A.** inconclusive [inhibitor, single point]

**Q.** With `CCOC(=O)c1cccc(NC(=O)/C=C/c2ccc([N+](=O)[O-])cc2)c1` as the compound, how does the Potency read?
**A.** active: 8.2 µM

**Q.** With `CCC(CC)C(=O)N(C)c1c(C)nc2c(OCCC3CCCCC3)cccn12` as the compound, how does the Potency read?
**A.** active: 5.17 µM

**Q.** Which Potency does the source give for `O=C(CCN1CCOCC1)c1ccccc1` here?
**A.** active: 3.55 µM

**Q.** Which Potency does the source give for `CC1CC1C(=O)Nc1nc(-c2cccs2)c(-c2cccs2)s1` (configuration not stated) here?
**A.** inconclusive [inhibitor, single point]

**Q.** For `COc1ccc(Br)cc1CC1C(=O)Nc2ccccc21` (configuration not stated), which Potency is on record?
**A.** active: 7.31 µM

**Q.** With `COc1ccc(C2CCCN2C(=S)Nc2cccc(C)c2C)cc1OC` (configuration not stated) as the compound, how does the Potency read?
**A.** inconclusive [inhibitor, single point]

**Q.** With `C=CCn1c(-c2ccccc2)nc(=S)c2c1CCCC2` as the compound, how does the Potency read?
**A.** active: 23.1 µM

**Q.** Which Potency does the source give for `CCOC(=O)c1c(C)nc2c(c1-c1ccccc1)C(=O)CC(C)(C)C2` here?
**A.** inconclusive [inhibitor, single point]

**Q.** With `CN(C(=O)c1ccc(NC(=O)Cc2cccc(NC(=O)C3CCCN(C(=O)C4CC4)C3)c2)cc1)C1CCCC1` (configuration not stated) as the compound, how does the Potency read?
**A.** inactive

**Q.** For `N#Cc1cnc2sc3ccccc3n2c1=N`, which Potency is on record?
**A.** inactive

**Q.** With `CC(=O)c1cccc(N(CC(=O)NC2CCCCC2)C(=O)CCC(=O)Nc2nc(C)cs2)c1` as the compound, how does the Potency read?
**A.** inactive

**Q.** Which Potency does the source give for `O=C(CCNC(=O)c1ccc(Br)cc1)Nc1ccccc1N1CCCCC1` here?
**A.** inconclusive [inhibitor, single point]

**Q.** With `O=C(CN(Cc1ccccc1Cl)C(=O)Cn1nnc(-c2cccs2)n1)NCC1CCCO1` (configuration not stated) as the compound, how does the Potency read?
**A.** inactive

**Q.** With `Cc1nc2ccc(F)cc2cc1C(=O)Nc1cccc(Cl)c1C` as the compound, how does the Potency read?
**A.** inconclusive [inhibitor, partial curve]

**Q.** With `COc1ccc(Cn2c(C)nc3ccc([N+](=O)[O-])cc3c2=O)cc1` as the compound, how does the Potency read?
**A.** active: 20.6 µM

**Q.** With `O=c1cc(CNc2cc(Cl)ccc2Cl)nc2sccn12` as the compound, how does the Potency read?
**A.** inconclusive [inhibitor, partial curve]

**Q.** For `Cc1[nH]n(-c2ccccc2)c(=O)c1N=Nc1cccc(C(=O)O)c1`, which Potency is on record?
**A.** inactive

**Q.** Which Potency does the source give for `CN1CCOC(=O)/C1=N/Nc1cc(Cl)ccc1Cl` here?
**A.** inactive

**Q.** With `COC(=O)c1ccc(CSc2nc3c(c(=O)n2-c2ccccc2)SCC3)o1` as the compound, how does the Potency read?
**A.** inconclusive [inhibitor, single point]

**Q.** For `CCCN1C(C(=O)c2ccccc2)=C(OC(=O)C(C)(C)C)c2ccccc2S1(=O)=O`, which Potency is on record?
**A.** active: 5.17 µM

**Q.** For `O=C(c1cccs1)N1CCN(c2nc3ccc([N+](=O)[O-])cc3s2)CC1`, which Potency is on record?
**A.** inactive

**Q.** Which Potency does the source give for `Cc1ccc2c(c1)sc1nc(=O)n(-c3cccc(Cl)c3)c(=O)n12` here?
**A.** inconclusive [inhibitor, partial curve]

**Q.** With `COc1ccc(CCN2CC(C(=O)NCCc3ccc(C(F)(F)F)cc3)CCC2=O)cc1` (configuration not stated) as the compound, how does the Potency read?
**A.** inconclusive [inhibitor, single point]

**Q.** With `COc1ccc(C(=O)c2coc3ccc(O)c(CN4CCCC4)c23)cc1` as the compound, how does the Potency read?
**A.** inconclusive [inhibitor, single point]

**Q.** With `O=S1(=O)[C@H]2C[C@H](CO)O[C@@]2(CO)CN1Cc1ccc(-c2cccc(Cl)c2)cc1` as the compound, how does the Potency read?
**A.** inconclusive [inhibitor, single point]

**Q.** Which Potency does the source give for `Cc1ccc(-n2c(=O)[nH]c3sc4c(c3c2=O)CCNC4)cc1C` here?
**A.** inactive

**Q.** For `CC(=O)Oc1ccc(C(=O)NCCc2ccccc2)cc1`, which Potency is on record?
**A.** inactive

**Q.** For `Cc1ccc(CNC(=O)CCCn2c(=O)c3ccccc3n(CC(=O)NCc3ccco3)c2=O)cc1`, which Potency is on record?
**A.** inactive

**Q.** With `CCNC(=S)N/N=C/c1ccc(OCC(=O)Nc2ccc(OC)cc2)c(OC)c1` as the compound, how does the Potency read?
**A.** inconclusive [inhibitor, partial curve]

**Q.** Which Potency does the source give for `COC(=O)C1=C(C(=O)OC)SC2(S1)C(C(=O)OC)=C(C(=O)OC)SC1=C2c2cc(C)ccc2NC1(C)C` here?
**A.** active: 14.6 µM

**Q.** With `COc1ccc(C(=O)N2CCC(C(=O)Nc3ccccc3OC)CC2)cc1` as the compound, how does the Potency read?
**A.** inactive

**Q.** For `Cc1cccc(-n2c(SCc3ccc([N+](=O)[O-])cc3)nnc2-c2c[nH]c3ccccc23)c1`, which Potency is on record?
**A.** inconclusive [inhibitor, single point]

**Q.** For `Cc1ccc(NC(c2cccc(Cl)c2)c2nnc(-c3ccccc3)o2)cc1F` (configuration not stated), which Potency is on record?
**A.** inconclusive [inhibitor, single point]

**Q.** With `N#Cc1c(N)n(CCc2ccc(F)cc2)c2nc3ccccc3nc12` as the compound, how does the Potency read?
**A.** inconclusive [inhibitor, single point]

**Q.** For `COc1ccc(CN2C(=O)c3ccccc3C2C(=O)NC2CCCCCC2)c(OC)c1` (configuration not stated), which Potency is on record?
**A.** inconclusive [inhibitor, single point]

**Q.** For `COc1cccc(N2CCN(c3ccc4nnc(CCC(=O)Nc5ccc(C)cn5)n4n3)CC2)c1`, which activity change, negative = growth inhibition is on record?
**A.** inconclusive: -30.5% [inhibitor]
